# Assay results from article PMC4336329 (PLoS ONE, 2015).
# In all, about 310,000 compounds went through this assay and about 14,000 (4.5%) showed an effect of 50% or more. The effect is printed as a negative number. Some of the results follow.
# Target: human ether-à-go-go-related gene (hERG) potassium channel (human, UniProt Q12809)
# Assay: primary screen, population patch clamp on CHO cells stably expressing hERG
# 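Also: peak tail current of the secondary pulse compared with the same well before compound.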
# Sequence of human ether-à-go-go-related gene (hERG) potassium channel (Q12809 whole entry, looked up): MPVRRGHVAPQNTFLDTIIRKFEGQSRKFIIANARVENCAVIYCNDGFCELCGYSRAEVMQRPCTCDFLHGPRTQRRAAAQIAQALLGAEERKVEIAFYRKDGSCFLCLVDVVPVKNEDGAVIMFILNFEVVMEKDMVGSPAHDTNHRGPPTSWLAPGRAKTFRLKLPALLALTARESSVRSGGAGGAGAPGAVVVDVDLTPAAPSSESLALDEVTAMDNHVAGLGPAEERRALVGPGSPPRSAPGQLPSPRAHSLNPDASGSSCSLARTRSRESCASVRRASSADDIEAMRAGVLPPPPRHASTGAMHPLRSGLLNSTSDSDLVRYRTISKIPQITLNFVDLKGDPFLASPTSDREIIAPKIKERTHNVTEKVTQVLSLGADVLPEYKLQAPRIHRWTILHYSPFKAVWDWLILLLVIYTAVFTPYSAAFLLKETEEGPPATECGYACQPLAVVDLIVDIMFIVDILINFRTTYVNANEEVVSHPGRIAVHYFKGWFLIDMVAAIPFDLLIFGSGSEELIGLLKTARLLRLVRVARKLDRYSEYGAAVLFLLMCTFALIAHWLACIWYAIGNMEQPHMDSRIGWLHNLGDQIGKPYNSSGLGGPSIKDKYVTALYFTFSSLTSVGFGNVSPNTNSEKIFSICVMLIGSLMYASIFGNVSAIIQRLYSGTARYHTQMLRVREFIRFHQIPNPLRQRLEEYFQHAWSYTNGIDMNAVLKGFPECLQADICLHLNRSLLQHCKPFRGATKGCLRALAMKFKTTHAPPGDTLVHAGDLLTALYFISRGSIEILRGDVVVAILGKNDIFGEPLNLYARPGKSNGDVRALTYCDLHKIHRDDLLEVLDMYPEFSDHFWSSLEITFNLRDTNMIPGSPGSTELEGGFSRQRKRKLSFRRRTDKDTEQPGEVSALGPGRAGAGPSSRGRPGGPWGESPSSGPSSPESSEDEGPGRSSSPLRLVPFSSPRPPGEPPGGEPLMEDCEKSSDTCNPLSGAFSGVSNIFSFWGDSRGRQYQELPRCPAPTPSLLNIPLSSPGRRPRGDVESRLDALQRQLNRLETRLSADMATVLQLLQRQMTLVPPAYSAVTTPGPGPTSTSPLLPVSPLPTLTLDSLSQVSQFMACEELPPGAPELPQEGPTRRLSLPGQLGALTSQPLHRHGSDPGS
row,SMILES,"hERG current change (%, negative = inhibition) at 10uM [%]"
1,Cc1ccc(C(=O)NCC(C)NC(=O)c2ccc(C)c(C)c2)cc1C (centres unmarked),17.3
2,CCOC(=O)N1CCN(C(=O)c2c(N)no[n+]2[O-])CC1,14
3,COc1ccc(NC(=S)Nc2cc(S(=O)(=O)N3CCCCC3)ccc2OC)cc1,-15.1
4,CC(=O)Nc1ccc(-c2csc(Nc3ccccn3)n2)cc1,5.07
5,CCN(c1cccc(C)c1)S(=O)(=O)c1cc2c3c(c1)CCN3C(=O)CC2,-1.93
6,CC(=O)C1(c2ccccc2)CCN(C(=O)C2CCC(=O)N(CCc3cccc(F)c3)C2)CC1 (centres unmarked),-20.5
7,Cc1ccc(S(=O)(=O)N2CCN(C(=O)COC(=O)c3ccc(Cl)nc3)CC2)c(C)c1,1.86
8,Cc1cn(Cc2ccccc2)c(=O)[nH]c1=O,1.69
9,C=CCn1c(N(C)C)nc2c1c(=O)[nH]c(=O)n2C,5.16
10,CCn1c(NCc2ccco2)nc2c1c(=O)n(C)c(=O)n2C,-10.7
11,CCN(CC)S(=O)(=O)c1ccc(O)c(NC(=O)c2cc(-c3cc(OC)c(OC)c(OC)c3)nc3ccccc23)c1,-59.2
12,O=C(CSc1ccc([N+](=O)[O-])cn1)Nc1ccc(N2CCOCC2)c(Cl)c1,-33.2
13,CCCCn1c(CNC(=O)CC)nc2ccccc21,-0.154
14,C/C=C(\C)CN1CCN(c2ccc(C)cc2)CC1,-7.37
15,CCOc1ccc(S(=O)(=O)N2CCC(C(=O)N3CCOCC3)CC2)cc1Cl,-6.05
16,O=C(c1ccccc1)N1CCN(S(=O)(=O)N2CCCCC2)CC1,-0.901
17,Cc1ccc(CNC(=O)c2ccc(N3CCC4(CC3)CC(c3cccc(Br)c3)=NO4)c(NC(=O)c3c(Cl)cccc3Cl)c2)cc1,18.2
18,CCC(C)c1ccc(S(=O)(=O)N2CCN(CC(O)CN3CCOCC3)CC2)cc1 (centres unmarked),-24.1
19,Cc1cc(NC(=O)/C=C/C(=O)N(c2ccccc2C)C(C(=O)NC2CCCC2)c2ccc(F)cc2)no1 (centres unmarked),17.8
20,CC(C)NS(=O)(=O)c1ccc(OCC(=O)Nc2ccccc2F)cc1,8.99
21,CC1CN(CCOc2ccccc2C(C)C)CC(C)O1.O=C(O)C(=O)O (centres unmarked),0.742
22,CCOC(=O)C1=C(C)N(C)C(C)=C(C(=O)OCC)C1c1ccsc1,32.9
23,CC(C)c1ccc(CCNC(=O)CCNC(=O)c2ccc(Br)cc2)cc1,5.74
24,CC(C)(C)c1ccc(OCC(O)CN2CCN(C(=O)c3ccccc3)CC2)cc1.O=C(O)C(=O)O (centres unmarked),-50.7
25,CC(C)Nc1ccc(C(CC(N)=O)NC(=O)c2ccc(Br)cc2)cc1[N+](=O)[O-] (centres unmarked),-9.82
26,O=C(NCc1ccccn1)c1nc(Cn2cc([N+](=O)[O-])cn2)no1,1.6
27,Cc1sc2ncnc(N3CCC(C(=O)Nc4ccc(C#N)cc4)CC3)c2c1C,7.52

row,SMILES,"hERG current change (%, negative = inhibition) at 10uM [%]"
1,CC1=NN(c2ccc(Br)cc2)C(=O)/C1=C/c1cccs1,17.3
2,Cc1nnc(Nc2ccc(O)cc2)[nH]c1=O,27.7
3,CCc1cc(=O)oc2cc(OCC(=O)NCc3ccccn3)ccc12,-12.7
4,Cc1ccc(OCCCN2C(=O)C(=O)c3cc(C)ccc32)cc1,4.57
5,O=C(COc1ccc2ccccc2c1)NNC(=O)Cc1ccccc1,29.7
6,Cc1ccc(CNC(=O)c2ccc3c(=O)n4c(-c5ccc(C)cc5)csc4nc3c2)cc1,7.48
7,COc1ccc2[nH]c3c(c2c1)CC(C)NC3=O (centres unmarked),14.9
8,CCOc1ccc(C(=O)N(CC)CC(=O)Nc2ccc3c(c2)OCCO3)cc1OCC,3.3
9,Cc1sc(NC(=O)CN(Cc2ccccc2)C(=O)C(C)C)c(C(N)=O)c1C,-0.293
10,CSCc1ccc(C(=O)N2CCCC(Nc3ccc(F)cc3)C2)o1 (centres unmarked),-18.7
11,COc1ccccc1C(=O)N1C(CC(=O)Nc2ccc(C)c(C)c2)C(=O)NC2CCCCC21 (centres unmarked),-0.911
12,CC(=O)COc1nc2c(c(-c3ccco3)c1C#N)CCc1ccccc1-2,5.31
13,COc1cccc(/C=N/NC(=O)c2cc(-c3cccn3C)n[nH]2)c1,-61.1
14,Cc1ccc(C(=O)NC2CCN(CC(=O)Nc3c(C)cc(C)cc3C)CC2)cc1,-11.9
15,CN(CCC(=O)Nc1cc(S(=O)(=O)N(C)C)ccc1Cl)CC(=O)Nc1ccc(F)cc1,-50.1
16,Cc1cc(C(=O)N/N=C/c2cc(N=Nc3ccccc3)ccc2O)n[nH]1,13.8
17,O=C(CSc1ncn[nH]1)N1c2ccccc2Sc2ccccc21,-5.46
18,COC(=O)C1=C(C(=O)OC)[C@@H]2N(Cc3ccccc3)c3ccccc3[C@@]23C[C@@H](C(=O)OC)N(C(=O)c2cccs2)C3=N1,9.39
19,CCOc1cc(C(C(=O)NCC2CCCO2)N(C(=O)Cn2nnc3ccccc32)c2cccc(OC)c2)ccc1O (centres unmarked),0.616
20,CC(=O)C1=C(O)C(=O)N(c2ccc(O)cc2)C1c1ccc(F)cc1 (centres unmarked),22.3
21,O=C(/C=C/c1cccs1)NC(=S)Nc1ccc(S(=O)(=O)Nc2ccccc2C(F)(F)F)cc1,22.3
22,COc1ccc(C)cc1NC(=O)c1ccc([N+](=O)[O-])cc1[N+](=O)[O-],1.26
23,CCCCN(CCCC)c1nc(-c2ccncc2)nc2ccccc12,-0.281
24,Cc1ccccc1CS(=O)(=O)c1cnc2ccccc2n1,-1.73
25,COc1cc(S(=O)(=O)NC(C)C)ccc1Cl,-8.63
26,CC(Sc1nnc(-c2ccc(OC(F)F)cc2)o1)C(=O)NCC1CCCO1 (centres unmarked),-27.6
